We go through 108 compounds from PubChem BioAssay AID488969 (Vanderbilt High Throughput Screening Facility, 2010).

Whole data set: some 110,000 compounds, median “z-score” near -0.1, cut for the highest 2% near 2. The list shows a part of the results. Activity calls are given as the source filed them.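 Rule for the calls: active = z-score in the third read window above 3 or below -3; inactive = the rest.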

The target of the test is Metabotropic glutamate receptor 8 (Rattus norvegicus) (UniProt P70579). Kind of test: rat mGluR8 modulators via GIRK flux, primary screen, cell-based, thallium flux, HTS (AID 488969). The settings on record: HEK293 rat mGluR8, GIRK (G protein-gated inwardly rectifying potassium channel) thallium flux, FluoZin2; at 10 µM; stronger effect = higher value; submaximal glutamate (EC20) added with thallium.
Chain of UniProt P70579 (P70579 whole entry, looked up): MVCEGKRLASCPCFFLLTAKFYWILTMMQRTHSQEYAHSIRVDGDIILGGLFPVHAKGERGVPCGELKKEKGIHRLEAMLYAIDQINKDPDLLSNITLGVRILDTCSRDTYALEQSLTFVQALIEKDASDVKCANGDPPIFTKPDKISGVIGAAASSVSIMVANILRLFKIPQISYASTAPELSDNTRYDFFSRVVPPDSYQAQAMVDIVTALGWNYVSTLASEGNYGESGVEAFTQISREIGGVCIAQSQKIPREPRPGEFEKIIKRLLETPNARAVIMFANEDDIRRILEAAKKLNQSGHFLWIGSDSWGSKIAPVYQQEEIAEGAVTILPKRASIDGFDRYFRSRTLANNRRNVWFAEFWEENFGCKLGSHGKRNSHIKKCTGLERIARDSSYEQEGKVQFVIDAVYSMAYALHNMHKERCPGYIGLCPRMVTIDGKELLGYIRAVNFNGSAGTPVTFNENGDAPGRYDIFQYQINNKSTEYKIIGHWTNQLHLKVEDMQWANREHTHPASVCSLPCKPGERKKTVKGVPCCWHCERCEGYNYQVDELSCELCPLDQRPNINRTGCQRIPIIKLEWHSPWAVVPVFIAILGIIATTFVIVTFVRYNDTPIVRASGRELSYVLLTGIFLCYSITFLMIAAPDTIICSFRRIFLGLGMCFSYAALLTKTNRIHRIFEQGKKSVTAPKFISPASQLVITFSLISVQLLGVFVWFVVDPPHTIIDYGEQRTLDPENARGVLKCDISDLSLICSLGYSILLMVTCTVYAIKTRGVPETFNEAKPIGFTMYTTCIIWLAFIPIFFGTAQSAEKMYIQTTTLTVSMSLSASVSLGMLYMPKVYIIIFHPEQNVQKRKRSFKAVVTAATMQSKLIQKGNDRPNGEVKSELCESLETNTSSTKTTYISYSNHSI
The compound `O=c1ccn(-c2cccc(C(F)(F)F)c2)nc1-c1ccn(-c2ccccc2F)n1` had a z-score of -0.283.

In turn, `CCCc1nn(C)c2c(=O)[nH]c(-c3ccccc3OCC)nc12` registered a z-score of -0.237.

As to `O=C(CCc1c[nH]c2ccccc12)NC1CC1`, the z-score is 0.058.

With `N=c1c2c(n(Cc3cccc(Cl)c3)c3c1CCC3)CCCC2`, the z-score is -0.273.

As for `O=C(c1ccco1)N1CCN(c2ccc(Cl)cc2)CC1`, the z-score was -0.265.

The compound `CCCCC(=O)C1=C(N2CCCC2)CC(C)(C)CC1=O` gave a z-score of 0.311.

Regarding `CCCCN(CCCC)C(=S)NC(=O)C(C)(C)C`, the z-score was active: 5.35.

Turning to `Cn1cccc1/C=N/NC(=O)C12CC3CC(CC(C3)C1)C2`, the z-score is -0.182.

The compound `Cc1cccc(C)c1NC(=S)NCCc1ccccn1` displayed a z-score of -0.183.

For `Cc1cc(C)nc(N2CCC(C(=O)NCCc3ccccc3)CC2)n1`, the z-score was determined as 0.0693.

As to `CCCN1C2=C(C(=O)CCC2)C(c2ccc(F)cc2)C2=C1c1ccccc1C2=O` (stereo not drawn), the z-score is -0.266.

In turn, `CC(C)(C)c1ccc(C(=O)OCC(=O)Nc2sc3c(c2C#N)CCC3)cc1` gave a z-score of -0.201.

On to `C=CCc1cccc2cc(NC(C)=O)c(=O)oc12`, for which the z-score was -0.0388.

With `COc1ccc(C(=O)Nc2nc(-c3ccc(S(=O)(=O)N4CCOCC4)cc3)cs2)cc1`, the z-score was -0.442.

`CC(=O)c1ccc(NC(=O)c2ccccc2Sc2ncnc3sc(C)c(C)c23)cc1`: the z-score is -0.343.

`COc1ccc(N(C(=O)c2cnsn2)C(C(=O)NC2CCCCC2)c2ccncc2)cc1` (stereo not drawn) registered a z-score of 0.0313.

Compound `O=C(CSc1nc2ccccc2c2nc3ccccc3n12)NCc1ccco1` yielded a z-score of -0.0376.

As for `Cc1c(S(=O)(=O)Nc2ccc3c(c2)OCCO3)c(=O)n(C)c(=O)n1C`, the z-score was -0.227.

On to `CC1CCc2cc(F)ccc2N1C(=O)CSc1nnc2c3cc(F)ccc3n(C)c2n1` (stereo not drawn), for which the z-score was -0.125.

Compound `CC1(C)C(C#N)=C(N)OC2=C1C(=O)CCC2` had a z-score of 0.297.

Take `Cc1nn2cc(-c3ccccc3)nc2s1`: the z-score amounted to 0.515.

In turn, `C/C(CC(=O)NC12CC3CC(CC(C3)C1)C2)=N\NC(=O)Cc1cccs1` gave a z-score of -0.0237.

Take `CC(C)OCCCNC(=O)c1ccc(NS(C)(=O)=O)cc1`: the z-score worked out at 0.427.

Take `CNC(=O)c1ccc(N(Cc2ccccc2)S(C)(=O)=O)cc1`: the z-score is -0.214.

In turn, `COc1ccc2cc(C#N)c(NC(C)C)nc2c1` returned a z-score of -0.494.

In turn, `Cc1cc(C)n2cc(CSc3nnnn3-c3ccc(Cl)cc3)nc2n1` returned a z-score of -0.269.

Regarding `CC1(C)Cc2c(sc(NC(=O)c3ccco3)c2C(=O)O)CO1`, the z-score is -0.292.

Regarding `COc1cc(-c2noc(CCCC(=O)NC3CCCCC3)n2)cc(OC)c1OC`, the z-score amounted to 0.572.

`O=C(N/N=C/c1ccc(Br)cc1)c1cc[n+](Cc2ccccc2)cc1` registered a z-score of -0.137.

`O=C(CN1CCCCC1)Nc1nnc(-c2ccc([N+](=O)[O-])cc2)s1` returned a z-score of 0.0367.

On to `COc1cccc(-c2cc(C(F)(F)F)nc(NCc3ccco3)n2)c1`, for which the z-score is -0.0697.

As to `CCCc1ccc(Oc2cn[nH]c2-c2ccc(O)cc2O)cc1`, the z-score was found to be 0.221.

Regarding `C=C(C)CSc1nnc(-c2cccc(S(=O)(=O)N(C)C)c2)n1-c1cc(OC)ccc1OC`, the z-score was -1.38.

Compound `CC(C)CC(N=C1NC(C)(C)Cc2ccccc21)C(=O)O` (stereo not drawn) returned a z-score of -0.0733.

`Cc1ccc(-n2nc(C)c3c(C)c(CCC(=O)NCc4ccco4)c(C)nc32)cc1` displayed a z-score of -0.789.

As for `CCOc1ccc(N(CC(=O)NCc2ccccc2)S(=O)(=O)c2c(C)noc2C)cc1`, the z-score is 0.0536.

The compound `N#CCOc1nc(N2CCOCC2)nc(N2CCOCC2)n1` gave a z-score of -0.0212.

As for `O=S(=O)(Nc1ccc(S(=O)(=O)Nc2cccc3ccccc23)cc1)c1ccccc1`, the z-score was active: -3.06.

As for `Fc1ccc(/C=C/c2nnc(-c3cccs3)o2)cc1`, the z-score is -0.493.

`Cc1cccc(-c2nc(CSCC(=O)NCc3cccs3)c(C)o2)c1` yielded a z-score of -0.318.

Compound `COc1cc(-c2nc(-c3cccc(C(F)(F)F)c3)no2)cc(OC)c1OC` yielded a z-score of 0.166.

For `COc1ccccc1-n1cnc2c(c1=O)c1nc3ccccc3nc1n2-c1ccc(C)cc1`, the z-score was -0.63.

With `COc1ccc(O)c(-c2cc(-c3ccccc3[N+](=O)[O-])[nH]n2)c1`, the z-score was -0.247.

In turn, `CCCCn1c(SCC(=O)c2ccc3c(c2)OCCO3)nnc1-c1ccco1` registered a z-score of -0.591.

For `C=CCn1c(SCc2c(F)c(F)c(F)c(F)c2F)nc(O)cc1=O`, the z-score is -0.151.

For the compound `C/C(N)=C(/C#N)C(=O)CSc1nnc(COc2cc(C)ccc2C)o1`, the z-score came to 0.16.

`O=[N+]([O-])c1cc(S(=O)(=O)NCCCN2CCOCC2)ccc1Cl` showed a z-score of -0.267.

Regarding `Cc1ccc(-c2ccc(/C=C/C(=O)c3ccccc3)o2)cc1`, the z-score was -0.233.

Compound `O=C(COc1ccc(/C=N/NC(=O)c2ccccc2O)cc1)Nc1ccc([N+](=O)[O-])cc1` registered a z-score of -0.123.

For the compound `Cc1ccc(C)c(NS(=O)(=O)c2cc(C(=O)NCCSC3CCCCC3)ccc2C)c1`, the z-score was 0.136.

Compound `COc1ccc(-c2csc(NC(=O)COC(=O)c3ccc(Br)o3)n2)cc1` showed a z-score of -0.242.

As to `COC(=O)c1cccc(N(C(=O)CNC(=O)c2ccco2)C(C(=O)NC2CCCC2)c2ccco2)c1` (stereo not drawn), the z-score was determined as 0.0125.

In the case of `Cc1nnc(SCc2cccc(CSc3nnc(C)s3)c2)s1`, the z-score is -0.0567.

For `O=C(N/N=C/c1ccco1)c1cc(-c2cccc3ccccc23)n[nH]1`, the z-score was -0.696.

Consider `CCCOc1ccc(C2C(C(=O)OC)=CN(CCOC)C=C2C(=O)OC)cc1`, for which the z-score is -0.356.

Consider `CCC(C(=O)NCc1ccco1)N(Cc1cccs1)C(=O)CNS(=O)(=O)c1ccccc1` (stereo not drawn), for which the z-score is -0.319.

Take `Cc1ccc(NC(=O)NNS(=O)(=O)c2ccc(Br)cc2)cc1`: the z-score was -0.276.

For the compound `COc1cc(C(=O)Nc2ccc3c(c2)C(=O)c2ccccc2C3=O)cc(OC)c1OC`, the z-score was -0.165.

The compound `O=C(NC(=S)Nc1ncc(Br)cc1Br)c1cncc(Br)c1` returned a z-score of 0.278.

`Cc1ccsc1/C=N/Nc1ncc(Cl)cc1Cl` came in with a z-score of -0.179.

`CCN1CCN(C(=O)Cn2ncc3c2-c2ccccc2OC3)CC1`: the z-score was 0.0205.

`O=C(CSc1nc(-c2ccc(F)cc2)cc(C(F)(F)F)n1)NCc1ccco1` came in with a z-score of -0.312.

Take `C=CCNC(=O)C1CCN(c2nc(C)cc(-c3ccccc3)n2)CC1`: the z-score is -1.08.

The compound `Cc1ccccc1N(C(=O)c1cccs1)c1nc2ccccc2s1` yielded a z-score of -0.386.

Compound `CCOC(=O)CSc1nnc(-c2ccoc2C)n1-c1ccc(OCC)cc1` displayed a z-score of -0.921.

`Cc1cc(C)c(C(=O)COC(=O)c2cccc(S(=O)(=O)NCc3ccccc3)c2)cc1C` returned a z-score of -0.153.

In the case of `CCOc1c2ccc(C(=O)N[C@H](C)C3CCCCC3)cc2nn1CC`, the z-score was -0.122.

`COc1cccc(C(=O)O/N=C(\N)c2ccncc2)c1OC` displayed a z-score of -0.365.

`O=C(c1ccc(N2C(=O)C3CCCCC3C2=O)cc1)N1CCCCC1` (stereo not drawn) yielded a z-score of -0.0104.

`CC1CC(C)CN(CCCNC(=O)C2CCN(S(=O)(=O)N3CCCCC3)CC2)C1` (stereo not drawn) yielded a z-score of 1.06.

Compound `COc1ccc(CCn2c(-n3nc(C)cc3C)nc3c2c(=O)[nH]c(=O)n3C)cc1` yielded a z-score of -0.107.

Regarding `C=CCc1cccc(CNc2nc3ccccc3n2CCN2CCOCC2)c1O`, the z-score amounted to 0.127.

`CN(C)c1nc(SCCOC(=O)Nc2ccccc2)nc(N(C)C)n1` showed a z-score of -0.557.

With `COc1ccc(S(=O)(=O)Cc2ccc(C(=O)N3CCC(C(N)=O)CC3)o2)cc1`, the z-score is -0.374.

Regarding `Cc1c(C)n(C(=O)CN2CCC(C(N)=O)CC2)c2ccccc12`, the z-score worked out at 0.0486.

`COc1cc(NC(=O)CN2CCCCC2C)c(C)cc1[N+](=O)[O-]` (stereo not drawn) had a z-score of -0.225.

Compound `O=C(ON=C1CCN(S(=O)(=O)c2ccccc2)CC1)c1ccc(F)cc1` returned a z-score of 0.0606.

As to `O=C(CNC(=S)NC(=O)c1ccc(F)cc1)c1ccccc1`, the z-score is -0.0791.

`CC(C)(C)c1ccc(OCC(=O)NNC(=O)CCc2ccccc2)cc1` registered a z-score of 0.639.

Compound `COc1ccc(C(=O)/C=C/Nc2cc(C)on2)c(OC)c1` displayed a z-score of -0.218.

`CCOc1ccc(OCCNC2CCCC2)cc1` registered a z-score of 0.0455.

On to `O=c1c2ccccc2nc(-c2ccco2)n1Cc1ccccc1`, for which the z-score is -0.53.

`O=S(=O)(c1cccc(C(F)(F)F)c1)N1CCC(c2cc(-c3cccc4ccccc34)n[nH]2)CC1`: the z-score was found to be 1.58.

With `O=C(Nc1ccccc1C(=O)NCc1ccc(Cl)cc1)c1ccco1`, the z-score was -0.699.

`Cc1nonc1OC(C)CNc1ccc([N+](=O)[O-])cc1` (stereo not drawn): the z-score came out at 0.228.

Compound `O=C(c1ccco1)N1CCN(C(c2ccccn2)c2nnnn2C2CCCC2)CC1` (stereo not drawn) yielded a z-score of -0.00379.

`O=C(Nc1ccc2c(c1)OCO2)NC1CCN(Cc2ccccc2)CC1` gave a z-score of 0.106.

The compound `O=C(Cc1ccc(F)cc1)NCCc1ccc(F)cc1` showed a z-score of 0.128.

The compound `O=C1c2cccc3cccc(c23)C(=O)N1/N=C/c1ccc(O)cc1O` registered a z-score of -0.296.

In turn, `COc1cc(C2C(C(=O)c3ccc(C)o3)=C(O)C(=O)N2c2cc(C)on2)cc(Br)c1O` (stereo not drawn) displayed a z-score of -0.257.

Take `O=C(CN1C(=O)C2C3C=CC(C3)C2C1=O)NCCC1=CCCCC1` (stereo not drawn): the z-score turned out to be 0.852.

The compound `O=C(COn1nnc2ccc(Cl)cc21)NCc1ccccc1` yielded a z-score of 0.157.

On to `O=c1c2ccccc2nc(COc2ccccc2)n1/N=C/c1ccco1`, for which the z-score is -0.24.

The compound `O=c1c2ccccc2c(C=NCCc2ccccc2)c(O)n1Cc1ccccc1` came in with a z-score of -0.112.

Compound `c1ccc2nc(-c3ccncc3)ccc2c1` had a z-score of -0.0132.

In turn, `O=C(Nc1ccccn1)C1(c2cccs2)CCOCC1` displayed a z-score of -1.95.

For `CC1(C)CC(CCC(=O)Nc2ccccc2Cl)C(=O)O1` (stereo not drawn), the z-score came to 0.106.

`COc1ccc(NC(=S)N2CCC(c3nc4ccccc4[nH]3)CC2)c(OC)c1` had a z-score of -0.0654.

For the compound `COc1cc(C2=Nc3c(c(C)nn3-c3ccccc3)P(=O)(N3CCOCC3)O2)cc(OC)c1OC` (stereo not drawn), the z-score came to 0.798.

Compound `c1ccc(Cn2nnnc2CN2CCCC2)cc1` showed a z-score of 0.234.

`COc1ccc(Oc2c(Cl)cnn(-c3ccccc3)c2=O)cc1` had a z-score of -0.58.

With `CCCCOc1ccc(OCCCC)c2c1NC1(N2)C(=O)N(C(C)=O)c2ccccc21`, the z-score worked out at 0.444.

Take `O=C(Nc1nccs1)c1cccc(S(=O)(=O)N2CCOCC2)c1`: the z-score is 0.288.

Compound `COc1ccc(C(=O)NC2(C(F)(F)F)NC(=O)N(CCCc3ccccc3)C2=O)c(OC)c1OC` (stereo not drawn) returned a z-score of -0.277.

The compound `CC(/C=C/c1ccc2c(c1)OCO2)=N/NC(=O)CNc1ccc(C)cc1` yielded a z-score of -0.178.

Compound `COCCn1nnnc1C(c1cc2ccc(OC)cc2[nH]c1=O)N1CCN(C2CCCCC2)CC1` (stereo not drawn) came in with a z-score of -0.119.

On to `Cc1cc2c(=O)n(C)c(SCC(=O)c3cc4ccccc4o3)nc2s1`, for which the z-score came to 0.166.

In the case of `COc1ccc(-c2[nH]nc3c2C(c2ccccc2OC(=O)N2CCOCC2)C(C#N)=C(N)O3)cc1` (stereo not drawn), the z-score was -0.234.
